According to PubChem BioAssay AID1963318 (National Center for Advancing Translational Sciences (NCATS), 2024):
The whole screen tested about 1,300 compounds, of which about 100 (7.7%) were called active. Inconclusive results, whose numbers are uncertain, are shown with a selection of clear calls. Calls come from the whole dose curve; as a rule, active = well fitted activation curve with a large enough effect; inconclusive = small, poorly fitted or top-dose-only effect; inactive = no such curve, though single readings can be large or run the other way. Potencies of inconclusive entries are doubtful fits and often do not repeat.

Target: Luciferin 4-monooxygenase (Photinus pyralis) (UniProt P08659)
UniProt P08659, sequence (P08659 whole entry, looked up): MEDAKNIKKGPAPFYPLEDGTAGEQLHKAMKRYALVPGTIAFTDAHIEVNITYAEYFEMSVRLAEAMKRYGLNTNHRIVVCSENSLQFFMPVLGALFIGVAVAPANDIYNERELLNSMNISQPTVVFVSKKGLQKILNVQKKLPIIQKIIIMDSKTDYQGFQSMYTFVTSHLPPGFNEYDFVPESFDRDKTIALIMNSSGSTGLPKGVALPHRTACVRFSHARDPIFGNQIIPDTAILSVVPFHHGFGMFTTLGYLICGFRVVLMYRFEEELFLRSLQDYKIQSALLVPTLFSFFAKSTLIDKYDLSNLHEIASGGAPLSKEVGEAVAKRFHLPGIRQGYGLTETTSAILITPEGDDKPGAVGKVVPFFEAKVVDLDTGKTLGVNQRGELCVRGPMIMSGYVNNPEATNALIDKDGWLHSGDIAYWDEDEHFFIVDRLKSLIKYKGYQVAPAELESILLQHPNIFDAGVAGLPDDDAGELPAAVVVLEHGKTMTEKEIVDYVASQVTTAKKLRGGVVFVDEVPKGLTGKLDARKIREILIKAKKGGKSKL
Assay: Firefly luciferase (FLuc-C-HiBiT) SDR gain of signal screen - without ATP; note: nearly all actives have a fitted effect of over 55% in size
Settings: Purified FLuc-C-HiBiT, Nano-Glo HiBiT luminescence, no ATP; series mostly up to 32.7 µM; activation (signal gain): at the top concentration
In short: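 10 nM FLuc-C-HiBiT, no ATP; pin-tool compound transfer; >30 min RT, dark; + Nano-Glo HiBiT reagent, 5-10 min RT; CCD luminescence read. Enzyme-free buffer wells as background.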
Potency is the fitted concentration of half-maximal effect; tags give direction and shape of the fitted curve.

Structure (SMILES)	activation (signal gain)	Potency
O=C1c2cnc(-c3ccc(Cl)cc3)nc2OCCN1CC1CC1	inactive: 24.3% [at 49.3 µM]	
CC(=O)c1cccc(NC(=O)c2nc3ccccc3n(C)c2=O)c1		active: 4.42 µM
Cc1ccc(NC(=O)N2CCC(CCNC(=O)C3CC3)CC2)cc1		inconclusive: 12.4 µM [activator, partial curve]
Cc1ccc(OCC(=O)Nc2cccc(-c3nc4ccccc4s3)c2)cc1	inactive: 13.6%	
CCC(=O)NCCC1CCN(C(=O)Nc2ccc(C)cc2)CC1		inconclusive: 14 µM [activator, partial curve]
CC(=O)NCCC1CCN(C(=O)Nc2ccc(C)cc2)CC1		inconclusive: 14 µM [activator, partial curve]
COc1ccc(CNC(=O)Nc2cccc(-c3ccc(N4CCOCC4)nn3)c2)cc1		inconclusive: 2.79 µM [activator, full curve]
Fc1ccc(-n2ncc3c(N4CCCCCC4)ncnc32)cc1		inconclusive: 7 µM [activator, partial curve]
O=C(O)c1cccc(-c2noc(-c3ccc(C(F)(F)F)cc3)n2)c1		active: 7 µM
c1ccc(Nc2ncc(-c3ccccc3)o2)cc1		inconclusive: 3.13 µM [activator, full curve]
COc1ccc(-c2cc(=O)c3cc(OCC(=O)OC(C)C)ccc3o2)cc1		inconclusive: 8.81 µM [activator, partial curve]
CN(Cc1cccnc1)c1ccc(-c2nc(COc3ccccc3)no2)cn1	inactive: 18.5%	
CC(C)C(=O)NC1CCN(Cc2ccc(-c3nc4cccc(Cl)c4s3)cc2)CC1	inactive: 12.7%	
CN(c1ccccc1)c1ccc2ncn(C3CC3)c(=O)c2n1		active: 18 µM
COc1ccc(-c2nc(C)c(CCNC(=O)c3c(F)cccc3F)s2)cc1	inactive: 17.1%	
Cc1c(NC(=O)c2cccc(Cl)c2Cl)cccc1-c1nc2ccccc2s1	inactive: 17.3%	
O=C(NCCc1ccccc1Cl)c1ccc2c(c1)nc1n2CCOC1		inconclusive: 14 µM [activator, partial curve]
Cc1ccc(Nc2c(-c3ccc(N(C)C)cc3)nc3nc[nH]n23)cc1	inactive: 18.3%	
Clc1ccc(-c2nc(-c3ccccn3)no2)cc1Cl		inconclusive: 14 µM [activator, partial curve, poor fit]
COc1ccc(-n2ncc3c(NC4CCCC4)ncnc32)cc1		inconclusive: 1.97 µM [activator, full curve]
CCc1ccc(NC(=O)N2CCCC(c3noc(COc4ccccc4)n3)C2)cc1 (centres undefined)		inconclusive: 2.79 µM [activator, partial curve]
Cc1c(C(=O)Nc2ccc(C(=O)O)cc2)nnn1-c1ccccc1		active: 7 µM
Cc1cc(NC(=O)c2ccc(CN3CC[C@H](O)C3)cc2)ccc1F		inconclusive: 12.4 µM [activator, partial curve]
Cc1ccc(NC(=O)N2CCc3c(C(=O)NCc4ccco4)cccc32)cc1		active: 9.89 µM
COc1ccc(CNC(=O)C[C@@H]2C[C@@H](C(C)C)[C@H](CNC(=O)c3cccnc3)C=C2C)cc1	inactive: 10.8%	

Structure (SMILES)	activation (signal gain)	Potency
Cc1cc(-c2nc3cc(F)ccc3s2)ccc1N		inconclusive: 11.1 µM [activator, partial curve]
O=C(Nc1ccc(F)cc1)C1CCN(C(=O)c2ncn3c2COC(c2ccccc2)C3)CC1 (centres undefined)	inactive: 9.35%	
N#Cc1c(NC(=O)c2cccc3ccccc23)sc2c1CCCC2	inactive: 12.1%	
Fc1ccc(NCc2ccccc2-c2nnc(-c3ccccc3Cl)o2)cc1Cl	inactive: 17.3%	
O=C(Nc1cnc(-c2ccc(Cl)cc2)nc1)C1CCC1		inconclusive: 3.94 µM [activator, partial curve]
CN(C(=O)OC(C)(C)C)c1ccc(-c2nc3ccccc3s2)cc1		active: 1.4 µM
COc1ccc(NC(=O)N2CCc3c(C(=O)NCCCN4CCCC4=O)cccc32)cc1		inconclusive: 14 µM [activator, partial curve]
Cc1ccc(NC(=O)Nc2ccc(C)n(CC(=O)NCC(C)C)c2=O)cc1		active: 3.94 µM
Cc1nn(-c2ccc(C(C)C)cc2)c(C)c1[C@@H]1C=C[C@@H](NC(=O)CC2(CC(=O)O)CCCC2)C1	inactive: 15.4%	
O=C(O)c1ccc(-c2noc(-c3ccc(F)cc3)n2)cc1		inconclusive: 19.7 µM [activator, partial curve]
COc1ccc(-c2cc3nc4c(c(=O)n3[nH]2)CN(C(=O)NCc2ccco2)CC4)cc1		inconclusive: 6.24 µM [activator, full curve, poor fit]
Cc1ccc(-c2nc(C(=O)N3CCN(c4ccccn4)CC3)no2)cc1		inconclusive: 22.1 µM [activator, single point]
O=C1c2cnc(-c3ccsc3)nc2OCCN1c1ccccc1		inconclusive: 25.5 µM [activator, partial curve, poor fit]
O=C(c1cc(-c2ccc(F)cc2)nc2ccccc12)N1CCC(Cc2nncn2CC2CC2)CC1		inconclusive: 17.6 µM [activator, partial curve, poor fit]
COc1cc(OC)cc(C(=O)Nc2ccc(-c3nc4ccccc4s3)c(C)c2)c1	inactive: 13%	
O=C(CSc1nnc2[nH]c(=O)cc(-c3ccccc3)n12)Nc1ccc(OC(F)(F)F)cc1	inactive: 19.5%	
CC(C)c1nc2c(c(-c3ccc(O)cc3)n1)CN(Cc1ccccc1)CC2	inactive: 11%	
O=C(c1cc2ccc3cccnc3c2[nH]1)N1CCCCC1		active: 11.1 µM
O=C(Nc1ccccc1C(=O)O)c1ccccc1	inactive: 17.8%	
Cc1nn(-c2ccc(C(C)(C)C)cc2)c(C)c1[C@@H]1C=C[C@@H](NC(=O)CCCC(=O)O)C1	inactive: 24.7% [at 49.3 µM]	
O=C(O)c1ccnc(-c2ccnc(NCCN3CCCCC3=O)n2)c1	inactive: 19.5%	
COc1ccc(C(=O)Nc2onc3c2CCCC3)cc1		inconclusive: 14 µM [activator, single point]
CCOC(=O)N1CCc2c(sc(NCc3sccc3C)c2C(=O)Nc2ccc(OC)cc2OC)C1	inactive: 7.67%	
O=C(NC[C@H]1Cn2cc(-c3ccc4c(c3)OCCCO4)nc2CO1)c1ccc2c(c1)OCO2		inconclusive: 17.6 µM [activator, partial curve, poor fit]
